Measured values from the RNAGym collection of RNA variant scans (doi:10.1073/pnas.2313332121).
This sample is rich in variants without activity.

B1: TPR 5TU (parent)
chain: GGAUCUUCUCGAUCUAACAAAAAAGACAAAUCUGCCACAAAGCUUGAGAGCAUCUUCGGAUGCAGAGGCGGCAGCCUUCGGUGGCGCGAUAGCGCCAACGUUCUCAACUAUGACACGCAAAACGCGUGCUCCGUUGAAUGGAGUUUAUCAUG

Variants of: B1
Assay: polymerase ribozyme fitness, log enrichment relative to wild type (log ratio); higher = more active; in vitro selection for triplet polymerase activity
Method in brief: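 Fitness measures genotype enrichment against wild-type enrichment on a logarithmic scale, with inverse-variance-weighted averaging of replicates. The logarithm is base 2, and genotypes were kept only with ≥10 input reads and ≥1 read per output in Illumina sequencing. The sequenced libraries came from one triplicate in vitro selection round, including frozen incubation at −7 °C, of PCR-built, transcribed mutant libraries of each subunit of a heterodimeric triplet polymerase ribozyme.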

| Variant | polymerase ribozyme fitness (log ratio) |
| --- | --- |
| G50A G58C C76U C85G G141U | -4.1 |
| G50A G62A C87G C105U A142G | ≤ -4.2 |
| G50A G62C G67C G68A C132U | ≤ -4.2 |
| G50A G67U C79U G86C U101A C116G | ≤ -4.2 |
| G50A G68A | ≤ -4.2 |
| G50A G68A C87G C93U A97U | ≤ -4.2 |
| G50A G68A G74A C75G C93U A107C C131G | ≤ -4.2 |
| G50A G68U G74U C85U A120U G126A | ≤ -4.2 |
| G50A G70A | -3.76 |
| G50A G71A C96G C105A | ≤ -4.2 |
| G50A G80A G88U C149A | ≤ -4.2 |
| G50A G83A A97G | -0.838 |
| G50A G84U | -1.58 |
| G50A G84U G141U | -3.31 |
| G50A G86A C132U G143C C149G | ≤ -4.2 |
| G50A G88C C95U C99U G128A | ≤ -4.2 |
| G50A G92A A106G | ≤ -4.2 |
| G50A G128C | ≤ -4.2 |
| G50A U53A A107U G141C | ≤ -4.2 |
| G50A U53A U55A U56A G67C G92A G126U | ≤ -4.2 |
| G50A U55A G70A G83C U101A U104A C105G G124U | ≤ -4.2 |

| Variant | polymerase ribozyme fitness (log ratio) |
| --- | --- |
| G50A U55G G58C C69A C93A C95G A120G G126U G133A | ≤ -4.2 |
| G50A U56G C85U A115C U144G | -2.74 |
| G50A U56G G80C C85A C114A G133A G140U | ≤ -4.2 |
| G50A U56G G83U A113U | ≤ -4.2 |
| G50A U82A C93U C95G G140C A150G G152U | ≤ -4.2 |
| G50C A52C G58C | ≤ -4.2 |
| G50C A52C G86U C87A | ≤ -4.2 |
| G50C A52C U56C C96U A107U | ≤ -4.2 |
| G50C A52C U77G C87A | ≤ -4.2 |
| G50C A52G G74A C96G | ≤ -4.2 |
| G50C A52U A73U G141A | ≤ -4.2 |
| G50C A64G A89C G94C U101G A106U G133U | -4.12 |
| G50C A64U G100U U111C G136C | ≤ -4.2 |
| G50C A73G C87A | ≤ -4.2 |
| G50C A73G C96G C103U A137C | ≤ -4.2 |
| G50C A91U A120U A147G | ≤ -4.2 |
| G50C A91U U144C C149U | ≤ -4.2 |
| G50C A97G A106U C108U G140C A147C | ≤ -4.2 |
| G50C A122C G143A | -4.06 |
| G50C C51A G71A G86U G100U A122G | ≤ -4.2 |
| G50C C51A G74A C87A | ≤ -4.2 |

| Variant | polymerase ribozyme fitness (log ratio) |
| --- | --- |
| G50C C51A G74U C85U G126A | ≤ -4.2 |
| G50C C51G A121U U139G | ≤ -4.2 |
| G50C C51U A137G | ≤ -4.2 |
| G50C C51U C72A A121U | ≤ -4.2 |
| G50C C51U G94C C116G C129A | ≤ -4.2 |
| G50C C54U G86A C108U | ≤ -4.2 |
| G50C C63G C75A | ≤ -4.2 |
| G50C C63G C96A C118U A119C | -0.626 |
| G50C C76A G83U G92A C95A | ≤ -4.2 |
| G50C C76G G83U G86C C118U A121U | ≤ -4.2 |
| G50C C85A A91C G133C | ≤ -4.2 |
| G50C C87U | -3.6 |
| G50C C87U A150C U151A | ≤ -4.2 |
| G50C C93G | ≤ -4.2 |
| G50C C95G U101G A115U C118G A122C G126U | ≤ -4.2 |
| G50C C95U | -3.47 |
| G50C C96A | -3.01 |
| G50C C114U | ≤ -4.2 |
| G50C C129U | -3.94 |
| G50C C149U | ≤ -4.2 |
| G50C G59C C95G | -3.67 |

| Variant | polymerase ribozyme fitness (log ratio) |
| --- | --- |
| G50C G67A C87U U144C | ≤ -4.2 |
| G50C G68U | ≤ -4.2 |
| G50C G71U C85A G124U | ≤ -4.2 |
| G50C G80C A138U | ≤ -4.2 |
| G50C G81A G86U C87A G136U | ≤ -4.2 |
| G50C G83U C93A G100U G124C G128U C132G U145G | ≤ -4.2 |
| G50C G86U C116A C132A | ≤ -4.2 |
| G50C G86U U102C A121C | ≤ -4.2 |
| G50C G94A C116U | -3.3 |
| G50C U53A U56A A89G C108G A119U | ≤ -4.2 |
| G50C U55A A64C C87A U145G | ≤ -4.2 |
| G50C U55A G80U A89C C95A A121C A142C | ≤ -4.2 |
| G50C U55C C72A | ≤ -4.2 |
| G50C U56A C72A C103A | ≤ -4.2 |
| G50C U56G G71U G88A C108G A113G | ≤ -4.2 |
| G50C U77A G84A | ≤ -4.2 |
| G50C U78G G84A G124C | ≤ -4.2 |
| G50C U82G G84U C103U A119U A120U | ≤ -4.2 |
| G50C U134C | -2.51 |
| G50U A52C A64C G92C | ≤ -4.2 |
| G50U A52C G88A A115C A147U | ≤ -4.2 |
